# Results: the supplement of paper PMC3334620
# Whole data set: some 33,000 sequences, median “E-score (-0.5 to 0.5)” near -0.016, cut for the highest 2% near 0.32. The list shows a part of the results.
# Biological target: T1, Stp1 (UniProt B3LFK1)
# T1 sequence: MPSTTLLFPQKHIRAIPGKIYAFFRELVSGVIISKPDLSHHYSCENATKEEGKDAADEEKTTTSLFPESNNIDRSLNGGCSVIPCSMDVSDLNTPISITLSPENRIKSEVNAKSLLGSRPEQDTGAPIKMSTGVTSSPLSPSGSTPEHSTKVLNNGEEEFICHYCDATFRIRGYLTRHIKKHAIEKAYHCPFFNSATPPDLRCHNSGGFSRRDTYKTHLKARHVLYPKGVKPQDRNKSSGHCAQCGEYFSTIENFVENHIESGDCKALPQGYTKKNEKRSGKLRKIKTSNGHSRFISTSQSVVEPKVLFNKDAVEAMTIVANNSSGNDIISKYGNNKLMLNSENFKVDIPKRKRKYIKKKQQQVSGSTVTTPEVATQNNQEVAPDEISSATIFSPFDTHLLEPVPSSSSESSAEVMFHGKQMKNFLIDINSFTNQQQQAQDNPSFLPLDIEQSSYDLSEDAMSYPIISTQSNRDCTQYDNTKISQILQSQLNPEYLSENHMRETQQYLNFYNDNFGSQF
# Test: PBM E-score (8-mer binding enrichment) (E-score (-0.5 to 0.5)); higher = stronger / more preferred TF binding; most listed sequences are background and not binding sites
# Details: protein concentration: 200 nM; construct: GST-full length
# How it was run: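 E-scores (a modified Wilcoxon-Mann-Whitney statistic) were assigned by the Universal PBM Analysis Suite to every ungapped eight-base word pooled with its reverse complement. The input came from universal all-10-mer Agilent arrays made double-stranded by primer extension and probed with GST-tagged yeast transcription factors at about 100-200 nM. Fluorescent anti-GST detected bound protein, and masliner normalised the scans.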
row,Sequence,PBM E-score
1,CCGTAACG,-0.00441
2,GTGCGGCA,0.469
3,ACAATAGC,-0.0477
4,ACTTAAGA,0.184
5,CCGTCTGA,0.221
6,CCGTTTGA,0.299
7,AGTTCAGA,0.00436
8,CGCTCACA,0.0478
9,AGGACCTG,-0.24
10,ATCAGCTA,-0.173
11,CTAGCCCA,-0.233
12,CGATGACA,0.127
13,CTGGCGGA,-0.286
14,AGGATGTC,-0.0107
15,GAAACATA,0.0803
16,AAGTGAAA,0.106
17,ACTATTGC,0.173
18,CTACAACA,-0.00032
19,GCGCACTA,0.258
20,GCGCGCCC,0.124
21,CCATGAAG,-0.066
22,ATAGACGA,0.0213
23,ATAGTAGC,0.1
24,AACTTTCT,-0.0269
25,ATTTCTCC,-0.0406

row,Sequence,PBM E-score
1,AATGCGCC,0.303
2,GGAAGGCA,0.246
3,CCATTTTA,0.216
4,CGTGGCCA,0.00473
5,GTGTGACA,-0.157
6,GGACGGCA,0.441
7,CGGATCGC,0.0759
8,AGGTTTCG,-0.147
9,ATCAGGAC,-0.0912
10,AGTATGGC,-0.0679
11,CTGACAAC,-0.0205
12,ACTTGCCG,0.209
13,ATCGAGTG,0.141
14,GGAGCACC,-0.188
15,AAGCTGAA,-0.00188
16,CGACCACG,0.0476
17,CTGCAGCC,-0.227
18,GTTGATAA,0.242
19,GGCCTCCA,-0.183
20,ACGGCTTC,0.417
21,GAGAATGA,0.133
22,AAGGTGCC,0.216
23,GTCCGCGA,-0.0616
24,ATCGCCGC,0.45
25,ATTTCTTA,0.163

row,Sequence,PBM E-score
1,GCCCCCGA,-0.304
2,ACTGTTGG,-0.147
3,AGACGAAT,0.0892
4,AAGCATCG,0.0894
5,ATCTTCCG,0.0423
6,ACCGATCT,-0.056
7,CGATGAAG,0.00162
8,TAATAGCA,-0.0461
9,ATACAAAT,0.278
10,ACGGTTAC,0.124
11,ATAGCACA,0.125
12,CTTGGGAC,-0.13
13,CGTAAACG,0.151
14,CTACTCCC,-0.279
15,ATGATATA,0.0105
16,AGGTGTAT,0.146
17,ATTTAGTG,0.0749
18,AGAGTCTC,-0.264
19,CCGCAATC,0.0224
20,AGGGGATA,-0.26
21,CCTTAACA,0.0522
22,ATACGAAG,0.0582
23,AAATAAAC,0.218
24,CCGACAGC,-0.148
25,CGGGTTGC,-0.111

row,Sequence,PBM E-score
1,AAGTCTGT,-0.193
2,CTACCGTA,-0.0539
3,ACCGTTTC,0.0865
4,GACCGCCC,-0.347
5,CAGCGCTG,0.0953
6,CCGTAGGA,0.0991
7,GATCAATC,-0.0857
8,GCCAACGC,0.245
9,AAACAGGA,-0.0614
10,TAATGCAA,0.134
11,ATCTCTCC,-0.017
12,AAGACGAA,0.0123
13,CAAATATG,0.12
14,CTAACCAG,-0.075
15,CCCTTTAG,-0.219
16,CTACTAGA,-0.0772
17,ATCAAGGC,-0.0478
18,CCGGGGTC,-0.173
19,ATGGCTGG,-0.207
20,ACATCCGT,0.0921
21,CACCAGCA,-0.224
22,CTCAGCAC,-0.116
23,GATCACCA,0.143
24,ACGCAACA,0.114
25,CGGGTTGA,-0.114

row,Sequence,PBM E-score
1,CCTGGAAA,-0.121
2,AAACGGCC,0.368
3,GTGATGCA,0.169
4,GTTCCCTA,-0.0821
5,ACTACGAA,0.128
6,GCTACCTA,-0.146
7,CCTTCGCA,0.0202
8,GTGGAGAA,-0.0885
9,TACGCGTA,0.0156
10,AGTCCGCA,0.106
11,CGTCCGTC,-0.144
12,TAAATTTA,0.226
13,CGATAATA,0.0751
14,GATCACTA,-0.0451
15,AACGTCCG,-0.122
16,TCTTGTCA,0.0645
17,AACCATCT,-0.176
18,AGTTTAGG,-0.22
19,CACGATGC,0.0991
20,ATGGGTAC,-0.154
21,TAAAGCGA,0.00495
22,ACAAAAGA,0.247
23,GAGCGGTA,0.058
24,CTTCGTCC,-0.0786
25,CATAGATC,-0.0519

row,Sequence,PBM E-score
1,CGGAAAAC,0.00742
2,GGACTACA,0.0189
3,GCTGATAA,0.129
4,CGTTCGAA,0.251
5,AATGCAGA,0.155
6,CCCCTCGC,-0.209
7,ATTACAAT,0.116
8,ATTCGTCG,-0.0259
9,AACGTATA,0.0584
10,CGCATGAG,0.0104
11,CACTCCCA,-0.0767
12,AACTAAAA,0.0204
13,AAACTACG,0.0983
14,TGGTGTAA,-0.0309
15,AGAGCCTC,0.126
16,CTGGCTCC,-0.205
17,CAGAGATA,0.0566
18,GTTCCTTA,0.0691
19,ACGGGAAG,-0.138
20,CAGAGTAA,-0.121
21,AATGCGTC,-0.188
22,CGGCTACC,0.226
23,CCAGGAAG,-0.0847
24,GCTAGTAC,-0.0494
25,AACTGTAT,0.129

row,Sequence,PBM E-score
1,CCTCATAG,0.0198
2,AATAGTGA,0.0984
3,AGGGAGTG,-0.0747
4,AGCACGTG,0.225
5,AGAGGCAG,-0.125
6,ACTAGCCC,-0.0796
7,TCATCGCA,-0.0449
8,AGAATGGC,0.119
9,ACAACACA,0.0707
10,CAACCGAA,0.0205
11,GCGGGTAC,0.0426
12,ACGGTAAG,0.106
13,AAGGGACC,-0.176
14,AACGAAAT,0.166
15,AGGCAACT,0.18
16,TATCCTCA,-0.00916
17,AACTCCGT,0.221
18,AAGAAAGC,-0.0454
19,AGTTCGAT,-0.0251
20,AATGGGGG,-0.295
21,ACAGCCAT,0.02
22,GAGAATAA,0.12
